# Measured values published in the supplement of paper PMC8728848.
# This is one part of the list.
# Tests used:
# Assay in all cases: glycan array binding signal (z-score within array); higher = stronger binding
# Settings in all cases: glycan notation: IUPAC condensed, linker removed; mutation: H262T
# [1] = target: Neu5Ac(a2-6)Gal
# Summary of the method: (§1)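 The Consortium for Functional Glycomics database supplied 3228 glycan arrays, of which those lacking an available protein sequence were dropped. The binding signal, a within-array Z-score, was averaged across arrays of the same protein sequence and across linkers. Negative scores can be read as non-binding.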
# [2] = target: Neu5Ac(a2-6)Gal(b1-3)GlcNAc(b1-3)[Gal(b1-4)GlcNAc(b1-6)]Gal(b1-4)Glc
# Summary of the method: as §1
# [3] = target: Neu5Ac(a2-6)Gal(b1-4)Glc
# Summary of the method: as §1
# [4] = target: Neu5Ac(a2-6)Gal(b1-4)GlcNAc
# Summary of the method: as §1
# [5] = target: Neu5Ac(a2-6)Gal(b1-4)GlcNAc(b1-2)Man
# Summary of the method: as §1
# [6] = target: Neu5Ac(a2-6)Gal(b1-4)GlcNAc(b1-2)Man(a1-3)Man(b1-4)GlcNAc(b1-4)GlcNAc
# Summary of the method: as §1
# [7] = target: Neu5Ac(a2-6)Gal(b1-4)GlcNAc(b1-2)Man(a1-3)[Gal(b1-4)GlcNAc(b1-2)Man(a1-6)]Man(b1-4)GlcNAc(b1-4)GlcNAc
# Summary of the method: as §1
# [8] = target: Neu5Ac(a2-6)Gal(b1-4)GlcNAc(b1-2)Man(a1-3)[GlcNAc(b1-2)Man(a1-6)]Man(b1-4)GlcNAc(b1-4)GlcNAc
# Summary of the method: as §1
# [9] = target: Neu5Ac(a2-6)Gal(b1-4)GlcNAc(b1-2)Man(a1-3)[GlcNAc(b1-4)][Neu5Ac(a2-6)Gal(b1-4)GlcNAc(b1-2)Man(a1-6)]Man(b1-4)GlcNAc(b1-4)GlcNAc
# Summary of the method: as §1
# [10] = target: Neu5Ac(a2-6)Gal(b1-4)GlcNAc(b1-2)Man(a1-3)[Man(a1-6)]Man(b1-4)GlcNAc(b1-4)GlcNAc
# Summary of the method: as §1
# [11] = target: Neu5Ac(a2-6)Gal(b1-4)GlcNAc(b1-2)Man(a1-3)[Neu5Ac(a2-3)Gal(b1-4)GlcNAc(b1-2)Man(a1-6)]Man(b1-4)GlcNAc(b1-4)GlcNAc
# Summary of the method: as §1
# [12] = target: Neu5Ac(a2-6)Gal(b1-4)GlcNAc(b1-2)Man(a1-3)[Neu5Ac(a2-6)Gal(b1-4)GlcNAc(b1-2)Man(a1-6)]Man(b1-4)GlcNAc(b1-4)GlcNAc
# Summary of the method: as §1
# [13] = target: Neu5Ac(a2-6)Gal(b1-4)GlcNAc(b1-2)Man(a1-3)[Neu5Ac(a2-6)Gal(b1-4)GlcNAc(b1-2)Man(a1-6)]Man(b1-4)GlcNAc(b1-4)[Fuc(a1-6)]GlcNAc
# Summary of the method: as §1
# [14] = target: Neu5Ac(a2-6)Gal(b1-4)GlcNAc(b1-2)Man(a1-6)Man(b1-4)GlcNAc(b1-4)GlcNAc
# Summary of the method: as §1
# [15] = target: Neu5Ac(a2-6)Gal(b1-4)GlcNAc(b1-2)Man(a1-6)[Gal(b1-4)GlcNAc(b1-2)Man(a1-3)]Man(b1-4)GlcNAc(b1-4)GlcNAc
# Summary of the method: as §1
# [16] = target: Neu5Ac(a2-6)Gal(b1-4)GlcNAc(b1-2)Man(a1-6)[GlcNAc(b1-2)Man(a1-3)]Man(b1-4)GlcNAc(b1-4)GlcNAc
# Summary of the method: as §1
# [17] = target: Neu5Ac(a2-6)Gal(b1-4)GlcNAc(b1-2)Man(a1-6)[Man(a1-3)]Man(b1-4)GlcNAc(b1-4)GlcNAc
# Summary of the method: as §1
# [18] = target: Neu5Ac(a2-6)Gal(b1-4)GlcNAc(b1-2)[Neu5Ac(a2-6)Gal(b1-4)GlcNAc(b1-4)]Man(a1-3)[GlcNAc(b1-4)][Neu5Ac(a2-6)Gal(b1-4)GlcNAc(b1-2)[Neu5Ac(a2-6)Gal(b1-4)GlcNAc(b1-6)]Man(a1-6)]Man(b1-4)GlcNAc(b1-4)GlcNAc
# Summary of the method: as §1
# [19] = target: Neu5Ac(a2-6)Gal(b1-4)GlcNAc(b1-2)[Neu5Ac(a2-6)Gal(b1-4)GlcNAc(b1-4)]Man(a1-3)[GlcNAc(b1-4)][Neu5Ac(a2-6)Gal(b1-4)GlcNAc(b1-4)Man(a1-6)]Man(b1-4)GlcNAc(b1-4)GlcNAc
# Summary of the method: as §1
# [20] = target: Neu5Ac(a2-6)Gal(b1-4)GlcNAc(b1-2)[Neu5Ac(a2-6)Gal(b1-4)GlcNAc(b1-6)]Man(a1-6)[Neu5Ac(a2-6)Gal(b1-4)GlcNAc(b1-2)Man(a1-3)][GlcNAc(b1-4)]Man(b1-4)GlcNAc(b1-4)GlcNAc
# Summary of the method: as §1
# [21] = target: Neu5Ac(a2-6)Gal(b1-4)GlcNAc(b1-3)Gal(b1-3)GlcNAc
# Summary of the method: as §1
# [22] = target: Neu5Ac(a2-6)Gal(b1-4)GlcNAc(b1-3)Gal(b1-4)GlcNAc
# Summary of the method: as §1
# [23] = target: Neu5Ac(a2-6)Gal(b1-4)GlcNAc(b1-3)Gal(b1-4)GlcNAc(b1-2)Man(a1-3)[Neu5Ac(a2-6)Gal(b1-4)GlcNAc(b1-3)Gal(b1-4)GlcNAc(b1-2)Man(a1-6)]GalNAc
# Summary of the method: as §1
# [24] = target: Neu5Ac(a2-6)Gal(b1-4)GlcNAc(b1-3)Gal(b1-4)GlcNAc(b1-3)Gal(b1-4)GlcNAc
# Summary of the method: as §1
# [25] = target: Neu5Ac(a2-6)Gal(b1-4)GlcNAc(b1-3)Gal(b1-4)GlcNAc(b1-3)Gal(b1-4)GlcNAc(b1-2)Man(a1-3)[Neu5Ac(a2-6)Gal(b1-4)GlcNAc(b1-3)Gal(b1-4)GlcNAc(b1-3)Gal(b1-4)GlcNAc(b1-2)Man(a1-6)]GalNAc
# Summary of the method: as §1
# [26] = target: Neu5Ac(a2-6)Gal(b1-4)GlcNAc(b1-3)Gal(b1-4)GlcNAc(b1-3)GalNAc
# Summary of the method: as §1
# [27] = target: Neu5Ac(a2-6)Gal(b1-4)GlcNAc(b1-3)Gal(b1-4)GlcNAc(b1-3)[Neu5Ac(a2-6)Gal(b1-4)GlcNAc(b1-3)Gal(b1-4)GlcNAc(b1-6)]GalNAc
# Summary of the method: as §1
# [28] = target: Neu5Ac(a2-6)Gal(b1-4)GlcNAc(b1-3)Gal(b1-4)GlcNAc(b1-6)[Gal(b1-3)]GalNAc
# Summary of the method: as §1
# [29] = target: Neu5Ac(a2-6)Gal(b1-4)GlcNAc(b1-3)Gal(b1-4)[Fuc(a1-3)]GlcNAc(b1-3)Gal(b1-4)[Fuc(a1-3)]GlcNAc
# Summary of the method: as §1
# [30] = target: Neu5Ac(a2-6)Gal(b1-4)GlcNAc(b1-3)GalNAc
# Summary of the method: as §1
# [31] = target: Neu5Ac(a2-6)Gal(b1-4)GlcNAc(b1-3)[Neu5Ac(a2-6)Gal(b1-4)GlcNAc(b1-6)]GalNAc
# Summary of the method: as §1
# [32] = target: Neu5Ac(a2-6)Gal(b1-4)GlcNAc(b1-6)GalNAc
# Summary of the method: as §1
# [33] = target: Neu5Ac(a2-6)Gal(b1-4)GlcNAc(b1-6)[Gal(b1-3)GlcNAc(b1-3)]Gal(b1-4)Glc
# Summary of the method: as §1
# [34] = target: Neu5Ac(a2-6)Gal(b1-4)GlcNAc(b1-6)[Gal(b1-3)]GalNAc
# Summary of the method: as §1
# [35] = target: Neu5Ac(a2-6)Gal(b1-4)GlcNAc6S
# Summary of the method: as §1
# [36] = target: Neu5Ac(a2-6)GalNAc
# Summary of the method: as §1
# [37] = target: Neu5Ac(a2-6)GalNAc(b1-4)GlcNAc
# Summary of the method: as §1
# [38] = target: Neu5Ac(a2-6)GalNAc(b1-4)GlcNAc6S
# Summary of the method: as §1
binder,measurement,setting,value
MGL6A (Homo sapiens) (protein) MTRTYENFQYLENKVKVQGFKNGPLPLQSLLQRLCSGPCHLLLSLGLGLLLLVIICVVGFQNSKFQRDLVTLRTDFSNFTSNTVAEIQALTSQGSSLEETIASLKAEVEGFKQERQAVHSEMLLRVQQLVQDLKKLTCQVATLNNNGEEASTEGTCCPVNWVEHQDSCYWFSHSGMSWAEAEKYCQLKNAHLVVINSREEQNFVQKYLGSAYTWMGLSDPEGAWKWVDGTDYATGFQNWKPGQPDDWQGHGLGGGEDCAHFTPDGRWNDDVCQRPYHWVCEAGLGQTSQESH,glycan array binding signal (z-score),[1],-0.172
same,glycan array binding signal (z-score),[2],-0.179
same,glycan array binding signal (z-score),[3],-0.177
same,glycan array binding signal (z-score),[4],-0.174
same,glycan array binding signal (z-score),[5],-0.178
same,glycan array binding signal (z-score),[6],-0.101
same,glycan array binding signal (z-score),[7],-0.175
same,glycan array binding signal (z-score),[8],-0.176
same,glycan array binding signal (z-score),[9],-0.176
same,glycan array binding signal (z-score),[10],-0.181
same,glycan array binding signal (z-score),[11],-0.176
same,glycan array binding signal (z-score),[12],-0.173
same,glycan array binding signal (z-score),[13],-0.16
same,glycan array binding signal (z-score),[14],-0.173
same,glycan array binding signal (z-score),[15],-0.172
same,glycan array binding signal (z-score),[16],-0.173
same,glycan array binding signal (z-score),[17],-0.173
same,glycan array binding signal (z-score),[18],-0.197
same,glycan array binding signal (z-score),[19],-0.188
same,glycan array binding signal (z-score),[20],-0.178
same,glycan array binding signal (z-score),[21],-0.175
same,glycan array binding signal (z-score),[22],-0.181
same,glycan array binding signal (z-score),[23],-0.171
same,glycan array binding signal (z-score),[24],-0.176
same,glycan array binding signal (z-score),[25],-0.159
same,glycan array binding signal (z-score),[26],-0.252
same,glycan array binding signal (z-score),[27],-0.172
same,glycan array binding signal (z-score),[28],-0.166
same,glycan array binding signal (z-score),[29],-0.166
same,glycan array binding signal (z-score),[30],-0.169
same,glycan array binding signal (z-score),[31],-0.168
same,glycan array binding signal (z-score),[32],-0.171
same,glycan array binding signal (z-score),[33],-0.178
same,glycan array binding signal (z-score),[34],-0.176
same,glycan array binding signal (z-score),[35],-0.177
same,glycan array binding signal (z-score),[36],0.012
same,glycan array binding signal (z-score),[37],-0.159
same,glycan array binding signal (z-score),[38],-0.176
